According to the supplement of paper PMC4604168 (melanoma cell lines):
Some of the results follow. Single values are uncertain, as repeats are few or missing.

Tests used:
Experiment in all cases: cell count relative to DMSO control; melanoma cells; higher = more viable cells
Conditions in all cases: library dose: low library concentration; 72 h
WM115 = test system: WM115
WM1716 = test system: WM1716
WM1745 = test system: WM1745
WM3526 = test system: WM3526
WM3619 = test system: WM3619
WM451Lu = test system: WM451Lu
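Note: cell number obtained by counting DAPI-stained nuclei in high-throughput microscope images with image analysis software, screen run in 1,536-well plates.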

Row | Compound | cell count (WM115) [%] | cell count (WM1716) [%] | cell count (WM1745) [%] | cell count (WM3526) [%] | cell count (WM3619) [%] | cell count (WM451Lu) [%]
1 | NCC(=O)Nc1ccc(-n2nc(C(F)(F)F)cc2-c2ccc3c(ccc4ccccc43)c2)cc1 + COc1ccc(-c2ccc3c(N4CCOCC4)nc(N4C[C@@H](C)O[C@@H](C)C4)nc3n2)cc1CO [KU0063794] (first compound 1 µM, partner dose 0.02 µM) | 110 | 104 | 92.7 | 49.1 | 111 | 73.8
2 | NCC(=O)Nc1ccc(-n2nc(C(F)(F)F)cc2-c2ccc3c(ccc4ccccc43)c2)cc1 + COc1cc2c(Oc3ccc4[nH]c(C)cc4c3F)ncnc2cc1OCCCN1CCCC1 [cediranib] (first compound 1 µM, partner dose 0.4 µM) | 80.1 | 95.4 | 95.4 | 46 | 110 | 54.7
3 | Cc1nc(Nc2ncc(C(=O)Nc3c(C)cccc3Cl)s2)cc(N2CCN(CCO)CC2)n1 [dasatanib] + CO[C@@H]1[C@H](N(C)C(=O)c2ccccc2)C[C@H]2O[C@]1(C)n1c3ccccc3c3c4c(c5c6ccccc6n2c5c31)C(=O)NC4 [Midostaurin] (first compound 0.004 µM, partner dose 0.08 µM) | 57.3 | 39.3 | 51.2 | 109 | 73.7 | 89.1
4 | CO[C@@H]1[C@H](N(C)C(=O)c2ccccc2)C[C@H]2O[C@]1(C)n1c3ccccc3c3c4c(c5c6ccccc6n2c5c31)C(=O)NC4 [Midostaurin] + COc1ccc(-c2ccc3c(N4CCOCC4)nc(N4C[C@@H](C)O[C@@H](C)C4)nc3n2)cc1CO [KU0063794] (first compound 0.08 µM, partner dose 0.02 µM) | 88 | 83.8 | 92.2 | 95.2 | 65.7 | 104
5 | C=CCn1c(=O)c2cnc(Nc3ccc(N4CCN(C)CC4)cc3)nc2n1-c1cccc(C(C)(C)O)n1 + COC(=O)c1sccc1S(=O)(=O)Nc1ccc(Nc2ccccc2)cc1OC [GSK0660] (first compound 0.02 µM, partner dose 1 µM) | 88.2 | 91.8 | 92.3 | 118 | 78.1 | 97.5
6 | OCCn1cc(-c2cnc3nnn(Cc4ccc5ncccc5c4)c3n2)cn1 + NCC(=O)Nc1ccc(-n2nc(C(F)(F)F)cc2-c2ccc3c(ccc4ccccc43)c2)cc1 [OSU03012] (first compound 1 µM, partner dose 1 µM) | 84.7 | 106 | 96.6 | 47.7 | 100 | 77
7 | CO[C@@H]1[C@H](N(C)C(=O)c2ccccc2)C[C@H]2O[C@]1(C)n1c3ccccc3c3c4c(c5c6ccccc6n2c5c31)C(=O)NC4 [Midostaurin] + O=S(=O)(c1ccccc1)N(CC(F)(F)F)c1ccc(C(O)(C(F)(F)F)C(F)(F)F)cc1 [T0901317] (first compound 0.08 µM, partner dose 1.4 µM) | 89.6 | 80.5 | 75.5 | 84.4 | 80.1 | 101
8 | NC(=O)Nc1cc(-c2cccc(F)c2)sc1C(=O)N[C@H]1CCCNC1 + Oc1nc(-c2ccc(C(F)(F)F)cc2)nc2c1CSCC2 [XAV939] (first compound 0.02 µM, partner dose 2 µM) | 90.1 | 65.1 | 51.3 | 73.7 | 46.9 | 94.5
9 | OCCn1cc(-c2cnc3nnn(Cc4ccc5ncccc5c4)c3n2)cn1 + COc1cc2ncnc(Nc3ccc(Oc4ccccc4)cc3)c2cc1OC [SrcI1] (first compound 1 µM, partner dose 2 µM) | 115 | 100 | 91.8 | 108 | 118 | 132
10 | NC(=O)Nc1cc(-c2cccc(F)c2)sc1C(=O)N[C@H]1CCCNC1 + Cn1cc(/C=C2\C(=O)Nc3cccnc32)c2ccccc21 [GW441756] (first compound 0.02 µM, partner dose 0.4 µM) | 102 | 104 | 83.3 | 73.4 | 39.8 | 97.3
11 | C=CCn1c(=O)c2cnc(Nc3ccc(N4CCN(C)CC4)cc3)nc2n1-c1cccc(C(C)(C)O)n1 + CN(C)S(=O)(=O)c1ccc2c(c1)/C(=C/c1cc3c([nH]1)CCCC3)C(=O)N2 [SU6656] (first compound 0.02 µM, partner dose 0.4 µM) | 74 | 97.5 | 85.9 | 89 | 78.2 | 101
12 | NCC(=O)Nc1ccc(-n2nc(C(F)(F)F)cc2-c2ccc3c(ccc4ccccc43)c2)cc1 + CC(C)CCN1c2nc(Nc3cc(F)c(O)c(F)c3)ncc2N(C)C(=O)C1C [BID1870] (first compound 1 µM, partner dose 0.2 µM) | 102 | 87.3 | 92.3 | 70.4 | 91.6 | 87
13 | C[C@]1(c2nc3c(C(N)=O)cccc3[nH]2)CCCN1 [Veliparib] + COC(=O)c1sccc1S(=O)(=O)Nc1ccc(Nc2ccccc2)cc1OC [GSK0660] (first compound 1.4 µM, partner dose 1 µM) | 77.6 | 92 | 93.5 | 117 | 115 | 96.9
14 | CN(C)S(=O)(=O)c1ccc2c(c1)/C(=C/c1cc3c([nH]1)CCCC3)C(=O)N2 + COc1cc2ncnc(Nc3ccc(Oc4ccccc4)cc3)c2cc1OC [SrcI1] (first compound 0.4 µM, partner dose 2 µM) | 78.5 | 113 | 89.4 | 84.8 | 94.2 | 103
15 | NCC(=O)Nc1ccc(-n2nc(C(F)(F)F)cc2-c2ccc3c(ccc4ccccc43)c2)cc1 + Cc1cc([N+](=O)[O-])ccc1NS(=O)(=O)c1cc(Cl)ccc1Cl [FH535] (first compound 1 µM, partner dose 1 µM) | 98.2 | 96.2 | 91.8 | 51.3 | 104 | 76
16 | NC(=O)Nc1cc(-c2cccc(F)c2)sc1C(=O)N[C@H]1CCCNC1 + Cn1cncc1[C@@](N)(c1ccc(Cl)cc1)c1ccc2c(c1)c(-c1cccc(Cl)c1)cc(=O)n2C [tipifarnib] (first compound 0.02 µM, partner dose 0.01 µM) | 77.4 | 60.4 | 95.1 | 79 | 41.1 | 82.7
17 | OCCn1cc(-c2cnc3nnn(Cc4ccc5ncccc5c4)c3n2)cn1 + CCN(CC)CCCCNc1ncc2cc(-c3cc(OC)cc(OC)c3)c(NC(=O)NC(C)(C)C)nc2n1 [PD173074] (first compound 1 µM, partner dose 0.1 µM) | 97.2 | 96.8 | 86.5 | 102 | 121 | 112
18 | Cc1nc(Nc2ncc(C(=O)Nc3c(C)cccc3Cl)s2)cc(N2CCN(CCO)CC2)n1 [dasatanib] + O=S(=O)(c1ccccc1)N(CC(F)(F)F)c1ccc(C(O)(C(F)(F)F)C(F)(F)F)cc1 [T0901317] (first compound 0.004 µM, partner dose 1.4 µM) | 67.1 | 69.5 | 52.1 | 77.6 | 98.9 | 83
19 | Cc1nc(Nc2ncc(C(=O)Nc3c(C)cccc3Cl)s2)cc(N2CCN(CCO)CC2)n1 [dasatanib] + COc1cc(N2CCC(N3CCN(C)CC3)CC2)ccc1Nc1ncc(Cl)c(Nc2ccccc2S(=O)(=O)C(C)C)n1 [NVP-TAE684] (first compound 0.004 µM, partner dose 0.08 µM) | 65.9 | 55.4 | 40.8 | 97.8 | 80.4 | 82.5
20 | C=CCn1c(=O)c2cnc(Nc3ccc(N4CCN(C)CC4)cc3)nc2n1-c1cccc(C(C)(C)O)n1 + O=c1cc(-c2cccc3c2Sc2ccccc2S3)oc(N2CCOCC2)c1 [KU55933] (first compound 0.02 µM, partner dose 1 µM) | 92.2 | 107 | 72.4 | 84.3 | 38.5 | 104
21 | OCCn1cc(-c2cnc3nnn(Cc4ccc5ncccc5c4)c3n2)cn1 + c1cc(-c2cnn3cc(-c4ccc(OCCN5CCCCC5)cc4)cnc23)ccn1 [Dorsomorphin] (first compound 1 µM, partner dose 0.4 µM) | 94.6 | 106 | 89.3 | 107 | 114 | 115
22 | OCCn1cc(-c2cnc3nnn(Cc4ccc5ncccc5c4)c3n2)cn1 + COC(=O)c1sccc1S(=O)(=O)Nc1ccc(Nc2ccccc2)cc1OC [GSK0660] (first compound 1 µM, partner dose 1 µM) | 107 | 105 | 99.4 | 96 | 110 | 102
23 | OCCn1cc(-c2cnc3nnn(Cc4ccc5ncccc5c4)c3n2)cn1 + O=C(O)C(=O)Nc1sc2c(c1C(=O)O)CCNC2 [TCS401] (first compound 1 µM, partner dose 1.66667 µM) | 97.2 | 92.1 | 91.3 | 99.5 | 95.2 | 74.6
24 | CO[C@@H]1[C@H](N(C)C(=O)c2ccccc2)C[C@H]2O[C@]1(C)n1c3ccccc3c3c4c(c5c6ccccc6n2c5c31)C(=O)NC4 [Midostaurin] + O=C1NC(=O)/C(=C/c2ccc(-c3ccc(F)cc3O)o2)S1 [AS252424] (first compound 0.08 µM, partner dose 1 µM) | 74.7 | 74.5 | 81.6 | 103 | 91.2 | 96.1
25 | Cc1nc(Nc2ncc(C(=O)Nc3c(C)cccc3Cl)s2)cc(N2CCN(CCO)CC2)n1 [dasatanib] + Cc1cc(N2CCOCC2)cc2[nH]c(-c3c(NC[C@@H](O)c4cccc(Cl)c4)cc[nH]c3=O)nc12 [BMS536924] (first compound 0.004 µM, partner dose 0.2 µM) | 77.9 | 66.6 | 39.3 | 96.7 | 82.5 | 60.4
26 | C[C@]1(c2nc3c(C(N)=O)cccc3[nH]2)CCCN1 [Veliparib] + COc1cc(Nc2ncc(F)c(Nc3ccc4c(n3)NC(=O)C(C)(C)O4)n2)cc(OC)c1OC [Tamatinib] (first compound 1.4 µM, partner dose 0.4 µM) | 69.2 | 89.8 | 73.8 | 66.8 | 123 | 104
